How the values were obtained:
Type in all cases: binding
McpH-LBD D169N = McpH-LBD D169N (Pseudomonas putida, UniProt Q88R14, D169N)
McpH-LBD R129A = McpH-LBD R129A (Pseudomonas putida, UniProt Q88R14, R129A)
McpH-LBD W140A = McpH-LBD W140A (Pseudomonas putida, UniProt Q88R14, W140A)
McpH-LBD F167A = McpH-LBD F167A (Pseudomonas putida, UniProt Q88R14, F167A)
McpH-LBD Y121A = McpH-LBD Y121A (Pseudomonas putida, UniProt Q88R14, Y121A)
McpH-LBD Y121A, sequence (Q88R14 51-276 Y121A): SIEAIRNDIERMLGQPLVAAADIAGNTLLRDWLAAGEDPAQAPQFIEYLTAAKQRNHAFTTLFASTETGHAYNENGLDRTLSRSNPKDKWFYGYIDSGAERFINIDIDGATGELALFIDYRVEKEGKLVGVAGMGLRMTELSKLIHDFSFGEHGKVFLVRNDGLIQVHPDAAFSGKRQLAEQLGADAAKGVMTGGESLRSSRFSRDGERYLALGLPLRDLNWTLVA

McpH-LBD F167A, sequence (Q88R14 51-276 F167A): as the sequence (Q88R14 51-276 Y121A) above, with A71Y, F117A counted along it
McpH-LBD D169N, sequence (Q88R14 51-276 D169N): as the sequence (Q88R14 51-276 Y121A) above, with A71Y, D119N counted along it
McpH-LBD R129A, sequence (Q88R14 51-276 R129A): as the sequence (Q88R14 51-276 Y121A) above, with A71Y, R79A counted along it
McpH-LBD W140A, sequence (Q88R14 51-276 W140A): as the sequence (Q88R14 51-276 Y121A) above, with A71Y, W90A counted along it

Compound: Nc1ncnc2[nH]cnc12 [Adenine]
- Fold reduction to wild-type protein (McpH-LBD D169N): 80 fold
- Fold reduction to wild-type protein (McpH-LBD R129A): 16 fold
- Fold reduction to wild-type protein (McpH-LBD W140A): 65 fold
- Fold reduction to wild-type protein (McpH-LBD F167A): 47 fold
- Fold reduction to wild-type protein (McpH-LBD Y121A): 58 fold

Source: paper PMC11245519, “Ubiquitous purine sensor modulates diverse signal transduction pathways in bacteria” (Nature Communications, 2024)
